Measurements reported in the supplement of paper PMC11417369.
This is one part of the list.

The sequences below were run on PfHDP1 homeodomain (GST-tagged) (assay: gcPBM binding intensity (ln(normalized median fluorescence intensity)); higher = stronger DNA binding).
In short: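 Binding intensity values are the highest Masliner-normalised natural-log median intensity among replicate spots of either probe orientation. The binding step lasted 1 h in 1× PBS with 1% milk, 0.2 mg/ml BSA, 0.5% salmon testes DNA and 0.03% Triton X-100, using GST-tagged P. falciparum DNA-binding domains expressed in E. coli on an Agilent 4 × 180k array of primer-extended double-stranded 36-bp intergenic genomic probes plus negative controls. Alexa488 anti-GST antibody and a 488 nm scan detected bound protein.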

| Sequence | gcPBM binding intensity (ln) |
| --- | --- |
| AAGAAAAAGAATAACCTTATTTCTATATACTAATTT [TGCATGCA_negctrl_site477] | 5.76 |
| TTTGTTCTTTTTGAAGTGCACTGAAATATAACAAAA | 10.9 |
| AAAAAAACACACACATATATATATATATATATATAT [GTGCAC_negctrl_site498] | 9.43 |
| TGTTTTATTTATTAAGCACACGCGATTTAAAAAATA [CACACA_site981] | 6.18 |
| TTCATATAATTCATCTGTACATATTGATAGTATGCA [XGTACX_site6386] | 6.29 |
| TCAAATGTGTAATCTTGTACACATTAAAAGAAAAAA [XGTACX_site8822] | 6.6 |
| AATAATATATGGACATGTACATAATATATATTTTTT [XGTACX_site312] | 6.39 |
| TATGTATTAATGAGAACATGCAAAATAATAAACAAT [TGCATGCA_site362] | 7.17 |
| ATATATCAAATAGACAAACACACAAAGGAAGAGTGA [CACACA_site3922] | 6.92 |
| CACAGACACGGACACACACACACACCCAGACACATA [CACACA_site4357] | 6.79 |
| CATATACACGAACACACACACACACGCACAAAAAAA [CACACA_site6376] | 7.99 |
| ATATATATATATATATGTACATATGTCAACTGTCTA [XGTACX_site8636] | 9.26 |
| CATACATACAAACACACACACATATATATACATACA [CACACA_site852] | 7.15 |
| TTAAATAATTCTTTTAGTACACACGAATAAGCAGAT [XGTACX_site623] | 6.72 |
| TAATATATTAATATATGTACGTATTTTTATTAATAT [XGTACX_site5346] | 6.5 |
| TATCTTATATATAAGTGTACGCAGATTCTTACGATA [XGTACX_site6058] | 6.17 |
| ATAATTAATGATGTATGTACGGAATTTATATATTTG [XGTACX_site5685] | 6.33 |
| GTATACATATTTATAATAATAAATGTCTTATATTTT [CACACA_negctrl_site688] | 6.31 |
| ATAGTAATAGAATGATTGCACTTAAATTTTCCCTCT | 7.86 |
| TGTTATTCTACATATACACACAAATAACAATTTAAA [CACACA_site1824] | 6.81 |
| AAAAAAAAAAAGAACACACACAGTGCACATTCGGTG [CACACA_site788] | 9.85 |
| AATACAAAAAAAGGTACACACATAATATATTTATTA [CACACA_site2628] | 6.46 |
| TTAACTTTTTTATATGCACACATAAACAAGGATATA [CACACA_site8932] | 10.1 |

| Sequence | gcPBM binding intensity (ln) |
| --- | --- |
| CTAATTGTGTATACCTGTACATATATATATATATAT [XGTACX_site416] | 9.43 |
| TTTCCCTCAAATAAAGTGCATTATGATTTTAATTTA | 8.15 |
| ATGTATTTATTTTAACGTACAAGATATTATTATTAT [XGTACX_site4609] | 6.21 |
| AAATTATATATGATGTGTACATAAATATATACACAT [XGTACX_site8761] | 6.82 |
| TTATTATTCAAGAGGAGTACATTATGTGTATAATAT [XGTACX_site4995] | 7.85 |
| TATATTTAGAGAGAGACACACAAAGGGACTTACACA [CACACA_site2545] | 6.67 |
| ATATGGCATATTTGTATTATACATACATATGTATCT [TGCATGCA_negctrl_site562] | 6.58 |
| AAATTATAATATAATACACACATAAAAAAAAAAAAA [CACACA_site7] | 6.51 |
| TTTGTTTGGTTTTGGTGTACTTTTTTTTTTTTTTCT [XGTACX_site2050] | 6.84 |
| GAATTATAAGAATAAACACACAAGCTTAAAAAAAAA [CACACA_site1204] | 6.28 |
| AGAATTCAACAATGTTGTACATACACACACACAAAA [XGTACX_site5035] | 7.23 |
| TTTCTTTTTTCACGTGCATGCCATTTAAGTATTAAT [TGCATGCA_site651] | 8.07 |
| ACTAAACTTATATGTACACACATATAACATTAATTT [CACACA_site2258] | 6.67 |
| ACATATGTATAATATGCACACGTCATTTTCCCCTTA [CACACA_site5194] | 9.78 |
| TTATTATTTGGTTATAGTACATAATATAATATATAT [XGTACX_site6911] | 6.3 |
| TATATATATATGTATGCATGTTGTTTTTTATTTAAT [TGCATGCA_site343] | 8.94 |
| CTATATTTCGTTGGACGTACAAATGTGATAATTAGG [XGTACX_site3232] | 6.55 |
| ATACGAAGAAATGTTCATTTATTTCGAACATTTAAT [CACACA_negctrl_site1481] | 6.05 |
| AATATAATATAATATAGTACGTAAAAATATTATACA [XGTACX_site2170] | 6.57 |
| TTTTTCATAAAACACACACACAAAAATAATGTGGAA [CACACA_site3687] | 6.56 |
| GTATTAATATATAATTGTACTTTTTTTTTTTTTTTT [XGTACX_site4369] | 6.3 |
| AAAAAAAACGGACACACACACATTCAATATAAAACA [CACACA_site4189] | 6.78 |
| TTCACATGAAGAATTAAAATAAAACTAGGAAATTAA [CACACA_negctrl_site1047] | 6.18 |

| Sequence | gcPBM binding intensity (ln) |
| --- | --- |
| TTTTTATATTTTACATGTACATAAATATATTATATA [XGTACX_site958] | 6.46 |
| AATAATGAATTGAAATGTACATATTTTTATTAATAC [XGTACX_site8899] | 6.36 |
| ATCACCAAATGGGCTATACAACAATGAGAAATGGTA [CACACA_negctrl_site48] | 6.55 |
| TGTGTATATCGATAAAGTACATTTGAAAAGTGACTT [XGTACX_site6957] | 6.33 |
| GTAATATGTATCCATACACACATACAGTTTATTTGC [CACACA_site6540] | 6.54 |
| TCCACTTAACTCAATTGTACAAAAATAAAAATTAAA [XGTACX_site855] | 6.45 |
| TTTTATGCGCAATAAGTGCATTTAAAATATATATAT | 9.25 |
| ATAATATATATATATATATTATCAAATATATATATA [GTGCAC_negctrl_site346] | 8.11 |
| AAAAAATAATAATAAAATGAATAGATATGTATTTAT [TGCATGCA_negctrl_site210] | 6.32 |
| AATAATATATATTGTACACACAAAATGGGAAAAAAA [CACACA_site5100] | 7.12 |
| TTATAAAAAAAAAAAAAAAATATATATATATATATA [XGTACX_negctrl_site592] | 9.25 |
| ACAAAATGTAAATAAACACACATATATATATATATA [CACACA_site1281] | 9.44 |
| AACATATTATCTTGTGAAAATAATATAAGTCACATT [TGCATGCA_negctrl_site339] | 5.94 |
| AGCAGAGTTACAATTTGTACGTAATTGATATAGATA [XGTACX_site4051] | 6.57 |
| ATATATATATATATTTGTACAGAAAATATTTTAATA [XGTACX_site3706] | 8.92 |
| AACTAAACAAAAGTTACACACATCATACGATATTAT [CACACA_site3180] | 6.35 |
| ATAATTTATATTCAGAAACACACGAAAAAAAAAAAT [CACACA_site1296] | 6.81 |
| ATGTTAAGAATAATTAGTACTTACATATGTATAATA [XGTACX_site4419] | 6.58 |
| ACCATATAATTTTTTTGTACATAATGATTTTTTTTT [XGTACX_site1104] | 6.74 |
| TATATTATATACGTCTGTACACAAATGAGAGGTAAA [XGTACX_site5538] | 7.05 |
| TACAATGTGGATAATTGTACAAAACCGATAAGAGGG [XGTACX_site6453] | 7.57 |
| TTATATACCCTAATATGTTTTATTATTATTATATAT [TGCATGCA_negctrl_site6] | 6.3 |
| TATATTCTACAAGAATTATGAATTGTCAGACCAAAT [CACACA_negctrl_site1101] | 5.99 |

| Sequence | gcPBM binding intensity (ln) |
| --- | --- |
| TTTATTTTCATATGAACACACATATATATATTATAA [CACACA_site2369] | 7.23 |
| CTGTTTTTGTTTTAAAGTACATTGTTCAATATACAT [XGTACX_site5288] | 6.74 |
| TGTTCTGAACGGTTCATGCACTTTTTTTTGTTAATT | 7.02 |
| ATATAAATAATATAAATACACACTAAAAAAAATATA [CACACA_site542] | 6.74 |
| AAAAAATAATTGAAGTGTACGTACAATGATTTTACT [XGTACX_site7663] | 6.38 |
| GTATTCTACAGACACATACACACATATATATATATA [CACACA_site3427] | 9.34 |
| AAGAAAAACTTTACGTGTACCAAACATCCTGCCGAC [XGTACX_site4895] | 6.5 |
| TAAACCTTAAAATATTTCTCATGTTTAACTTATATT [GTGCAC_negctrl_site233] | 6.68 |
| TTATAATATTGTGGTATACACACCTTACAAAAAGGT [CACACA_site2878] | 6.58 |
| GGGAGAAATTTATACATACACACATATATATATTAT [CACACA_site4039] | 6.76 |
| AAAAAAATAATGTACACACACATATCTGTTTATATA [CACACA_site4270] | 6.46 |
| ATATTTATATATATATGTACATATGTGTGTTTTTAT [XGTACX_site3956] | 6.66 |
| TCATAAACATTATGCACACAAAAATAAAAAAAAATA [CACACA_site1115] | 10.2 |
| ATATATAACTTTTCTTAACACACAAAAAACAAAAAT [CACACA_site8748] | 6.93 |
| AGGGAATAATATTAATGTACATATATGAACTTGTTT [XGTACX_site6089] | 6.52 |
| TATAAAAAGGAAAAATAAAAATAAAAATAAAAATTA [CACACA_negctrl_site1822] | 6.07 |
| TCTTTTAAAAATTAAGTGCATGTCCTTATAACAAAA | 7.58 |
| AATATTTAAAACAAATCACACATGTATCCATAAATG [CACACA_site5308] | 6.33 |
| ATATCCCATATGTAATGTACTTACACTTTCTTAATT [XGTACX_site7020] | 6.73 |
| TAAATATTTTATTGTACACACTTTTTATGAATGATG [CACACA_site5694] | 6.81 |
